# The other results are listed elsewhere or left out.
# Tested on: T1, Caupolican (Caup) homeodomain DNA-binding domain
# T1 sequence: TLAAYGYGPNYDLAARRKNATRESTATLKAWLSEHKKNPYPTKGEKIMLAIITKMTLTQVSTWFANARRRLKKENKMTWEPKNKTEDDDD
# Assay: PBM E-score (8-mer, recovered from the published 9-mer minima) (E-score (dimensionless, -0.5 to 0.5)); Drosophila protein; higher = stronger relative binding preference, active = 0.31 or more
# Protocol: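 Protein binding microarray (PBM): in vitro transcribed/translated Caupolican (Caup) homeodomain DNA-binding domain (residues 214-303) applied at 100 nM to a universal 8-mer PBM array (Agilent AMADID 015681). The 8-mer enrichment score (E-score, range -0.5 to 0.5) was computed, and each 9-mer score is the minimum E-score of its two constituent 8-mers. The E-score is the same for a 9-mer and its reverse complement; 0.31 is the stated binding threshold.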
row,Sequence,PBM E-score
1,GCCTGGGA,inactive: -0.127
2,ACTGATCG,inactive: 0.0372
3,AGCACCCA,inactive: -0.0889
4,GAGGGGGA,inactive: -0.347
5,ATACGAAC,inactive: 0.147
6,GCCATGGC,inactive: -0.246
7,ACAGAAGC,inactive: 0.0412
8,CTCCCAGA,inactive: -0.16
9,AGTTCCTA,inactive: 0.0222
10,GACACCCA,inactive: 0.0402
11,GGGCCAGA,inactive: -0.206
12,AAGAATCT,inactive: -0.0458
13,ACGTTCAT,inactive: 0.101
14,GAACCAAC,inactive: 0.0185
15,ATCCGCCA,≥ -0.0933
16,GATATCGA,inactive: 0.111
17,ACTCTTAG,inactive: -0.0263
18,GATCTCCA,inactive: -0.106
19,GATACGAC,inactive: 0.117
20,AGGTCGAT,inactive: -0.0468
21,GGCTTCCC,inactive: -0.202
22,AGTACCTC,inactive: 0.115
23,GTTTAACA,inactive: 0.256
24,GTGCCTTA,inactive: -0.0425

row,Sequence,PBM E-score
1,CAAGTTGC,inactive: 0.032
2,CCTCCACA,inactive: -0.164
3,AGTGATAC,inactive: 0.0617
4,ATGTCTAA,inactive: 0.288
5,GAACAGGA,inactive: 0.16
6,AAATCAGT,inactive: 0.135
7,CCCAACAG,inactive: -0.0789
8,ATAACCAC,inactive: 0.167
9,GTCACGAC,inactive: 0.139
10,GGAATGAC,inactive: 0.0513
11,GGTTCCCA,inactive: -0.103
12,CGCCGTTA,inactive: -0.0518
13,AAGTCACA,inactive: 0.0474
14,ACGTTAGA,inactive: 0.0532
15,CAGACGAC,inactive: 0.0504
16,CAAACGCC,inactive: -0.0758
17,ACTTTATC,inactive: 0.0909
18,GGGCCTCA,inactive: -0.273
19,GGAGCTTA,≥ -0.0262
20,GAACTCCC,inactive: -0.11
21,GACCCCGA,inactive: -0.174
22,GGGTGGAC,inactive: -0.109
23,CGATTTGA,inactive: 0.0488
24,ACCGACTA,inactive: 0.0195

row,Sequence,PBM E-score
1,AGCTGCAA,inactive: -0.077
2,GGGTCTCA,inactive: -0.141
3,CCTGTTGC,inactive: 0.0638
4,GTCGGCAA,inactive: -0.08
5,CTAATTGC,inactive: -0.00967
6,CAGCGCCC,inactive: -0.274
7,CAAATGCC,inactive: -0.164
8,CCGAGCGA,inactive: -0.0487
9,GGGATAAC,inactive: 0.0133
10,AAGACCCG,inactive: -0.184
11,AATAGGCT,inactive: -0.0328
12,AACAGCGC,inactive: 0.0512
13,GGTTCCAA,inactive: -0.0408
14,ACAACTAG,inactive: 0.206
15,TCTCCTAA,inactive: 0.0625
16,AAGCCTCA,inactive: -0.102
17,AGGCATGA,inactive: -0.0469
18,TCGAAAAA,inactive: -0.00773
19,ACTCCTCC,inactive: -0.132
20,GGGCTAGA,inactive: -0.158
21,AATGCTAT,inactive: 0.0644
22,ACGTAAAC,inactive: -0.00203
23,TACTTCGA,inactive: 0.103
24,AAACCGTC,inactive: -0.0672

row,Sequence,PBM E-score
1,TCGAGGAA,inactive: -0.067
2,AACACTTG,inactive: 0.198
3,GCCTACAA,inactive: 0.0833
4,CCCCGAGA,inactive: -0.183
5,CGGAGTTA,inactive: -0.0226
6,GTTCTAAA,inactive: 0.0252
7,CGCTCCAA,inactive: -0.105
8,GATGATTA,inactive: 0.0929
9,CGTCCGCA,inactive: -0.0747
10,ACGTTTCC,inactive: -0.0583
11,CGCTCGTC,inactive: -0.0959
12,ACTGCACG,inactive: -0.0621
13,AACCGATG,inactive: 0.0188
14,GCCCGACA,inactive: 0.0626
15,CGCGTCCG,≥ -0.0557
16,ACGATGAC,inactive: 0.0356
17,GTCAATCA,inactive: 0.0914
18,AATGAGCC,inactive: -0.124
19,AAATGTCT,inactive: 0.106
20,ATCTTCCC,inactive: -0.0386
21,CCAAGATC,inactive: -0.0393
22,ATGCCTCG,≥ -0.00058
23,ACCGGGCA,inactive: -0.171
24,AAAGCTGC,inactive: -0.0478

row,Sequence,PBM E-score
1,GGAGTGCC,inactive: -0.187
2,AGAGAGGG,inactive: -0.211
3,CATGCAGC,inactive: -0.0613
4,AACGGTGG,inactive: -0.138
5,AGAAGCTC,inactive: -0.137
6,CATAAGAG,inactive: -0.0264
7,AACTAGTT,inactive: 0.194
8,GTTCTCCA,inactive: 0.0206
9,CGACCAAA,≥ 0.0331
10,CGTATGGA,inactive: -0.0565
11,AAATATAC,inactive: 0.177
12,GGATCATA,inactive: 0.00281
13,TAGGTGGA,≥ 0.046
14,CCATATAG,inactive: -0.0336
15,GCTGAGTA,inactive: -0.0179
16,ATTAATGG,inactive: 0.19
17,ATATACCA,inactive: 0.172
18,CCAACTGG,inactive: -0.0571
19,ATTAACTA,≥ 0.201
20,ATACCGAC,inactive: 0.034
21,ACTCGTAC,inactive: 0.135
22,GGCTAACA,inactive: 0.109
23,CCGGTGTA,inactive: 0.0793
24,AGTTAGAA,inactive: 0.00094

row,Sequence,PBM E-score
1,AACGGCCT,inactive: -0.161
2,CCTAAGTA,inactive: 0.0338
3,GGTGAACC,inactive: -0.089
4,CCCCGATA,inactive: -0.121
5,CTCGTGGC,inactive: -0.127
6,AGTCTATC,inactive: 0.073
7,CCCTTAAG,inactive: -0.0555
8,ATCCGATC,≥ 0.167
9,ACAACATC,active: 0.356
10,GCTTATCA,inactive: 0.0595
11,AATAACGC,inactive: 0.0476
12,CTAAAAGA,≥ 0.0807
13,AGCACTAT,inactive: 0.1
14,CGATCCAA,inactive: 0.0185
15,ATCGAATG,inactive: 0.116
16,CTATGTAA,active: 0.338
17,AGTGGCTG,inactive: -0.138
18,AGGCCTGA,inactive: -0.149
19,CACACTTA,inactive: 0.0946
20,GCAACGTA,inactive: 0.02
21,GAGGAGTA,inactive: -0.0343
22,GGGGTCCA,inactive: -0.258
23,CAAGGTAG,inactive: -0.0378
24,ACGAGGCA,inactive: -0.012

# — the supplement of paper PMC3724861
